Our source for the growth inhibition call values is the antibiotic and cytotoxicity screens of Wong et al. (2023).

The structures appear in SMILES notation. Some of the results follow.

This assay concerns S. aureus RN4220. Kind of assay: growth inhibition call (relative growth <= 0.2). To be noted: 50 µM.
For the compound `C[C@H]1CN([C@@H](C)CO)C(=O)c2cccc(NS(=O)(=O)c3ccccc3)c2O[C@@H]1CN(C)Cc1ccc(Cl)c(Cl)c1`, the growth inhibition call was “inactive”.
`COc1ccc(S(=O)(=O)Nc2ccc3c(c2)C(=O)N([C@@H](C)CO)C[C@@H](C)[C@H](CN(C)C(=O)Nc2ccc(C(F)(F)F)cc2)OCCCC[C@@H](C)O3)cc1`: the growth inhibition call is “inactive”.
Turning to `CC1(C)CC[C@]2(C(=O)O[C@@H]3OC[C@@H](O)[C@H](O)[C@H]3O)CC[C@]3(C)C(=CC[C@H]4[C@@]5(C)C[C@@H](O)[C@H](O)[C@@](C)(CO)[C@@H]5[C@H](O)C[C@]43C)[C@@H]2C1`, the growth inhibition call was “inactive”.
Take `NC(=O)NCC#Cc1ccc2c(c1)[C@]1(C(=O)N2)[C@H](C(N)=O)[C@H]2C(=O)O[C@H](c3ccccc3)[C@H](c3ccccc3)N2[C@@H]1c1ccc(OCCO)cc1`: the growth inhibition call was “inactive”.
With `C[C@H]1CN([C@@H](C)CO)C(=O)c2c(c3ccccc3n2C)-c2ccccc2CO[C@H]1CN(C)C(=O)CCC(F)(F)F`, the growth inhibition call was “inactive”.
The value for `CCCC(=O)Nc1ccc2c(c1)C(=O)N(C)C[C@H](OC)[C@@H](C)CN(Cc1ccc(-c3ccccn3)cc1)[C@H](C)CO2` was “inactive”; that for `C[C@H](CO)N1C[C@H](C)[C@H](CN(C)C(=O)Nc2ccccc2)OCCCC[C@H](C)Oc2ccc(NS(=O)(=O)c3ccc(F)cc3)cc2C1=O` was “inactive”.
Then `COc1ccc([Si](C)(C)[C@@H]2[C@@H](CCO)O[C@]3(C(=O)N(Cc4cccc(N5C(=O)c6cccc7cccc5c67)c4)c4ccccc43)[C@H]2C)cc1`, with “inactive”; and `COc1ccc(-c2cn(CCCNC(=O)[C@H](Cc3ccccc3)NS(=O)(=O)c3ccc(C)cc3)nn2)cc1OC`, with “inactive”.
Then `Cc1noc(C)c1S(=O)(=O)N(C)C[C@@H]1Oc2ccc(NS(=O)(=O)c3cn(C)cn3)cc2C(=O)N([C@@H](C)CO)C[C@@H]1C`, with “inactive”; and `NC(=O)[C@H]1Cc2ccccc2N1`, with “inactive”.
Consider `C[C@@H]1CCCCO[C@@H](CN(C)Cc2ccc(C(=O)Nc3ccccc3N)cc2)[C@@H](C)CN([C@H](C)CO)C(=O)c2cc(NC(=O)C3CCCCC3)ccc2O1`, for which the growth inhibition call was “inactive”.
Then `COc1ccc([Si](C)(C)[C@H]2[C@H](CC(=O)N(CCO)Cc3ccccc3)O[C@@]3(C(=O)N(C)c4c(Br)cc(C)cc43)[C@@H]2C)cc1`, with “inactive”; and `COc1ccc(-c2ccc3c(c2)O[C@@H](CN(C)CC2CCOCC2)[C@@H](C)CN([C@H](C)CO)S3(=O)=O)cc1`, with “inactive”.
Regarding `C[C@H](CO)N1C[C@H](C)[C@H](CN(C)Cc2ccc(C(=O)Nc3ccccc3N)cc2)Oc2c(NC(=O)NC3CCCCC3)cccc2C1=O`, the growth inhibition call was “inactive”.
On to `C[C@H](CO)N1C[C@H](C)[C@@H](CN(C)S(=O)(=O)c2ccccc2)Oc2c(NC(=O)C3CCOCC3)cccc2C1=O`, for which the growth inhibition call was “inactive”.
On to `CCOC(=O)[C@H]1C/C=C/C[C@H](C(=O)OCC)C(=O)O[C@H]2[C@@H](OC)O[C@H](CO)[C@@H](OC(=O)Nc3cccc(F)c3)[C@@H]2OC1=O`, for which the growth inhibition call was “inactive”.
For `COc1ccc(NC(=O)Nc2ccc3c(c2)C(=O)N([C@@H](C)CO)C[C@@H](C)[C@@H](CN(C)C(=O)Nc2ccc(C(F)(F)F)cc2)OCCCC[C@@H](C)O3)cc1`, the growth inhibition call is “inactive”.
Consider `CCN(CC)[C@H]1CCS(=O)(=O)C1`, for which the growth inhibition call was “inactive”.
As to `CCO[C@@H]1OC(C(=O)N2CCN(Cc3ccc4c(c3)OCO4)CC2)=C[C@H](c2ccc(C(F)(F)F)cc2)[C@H]1CCCOC(=O)NCCCCCC(=O)NO`, the growth inhibition call was “inactive”.
Then `O=C(O)c1ccc(CCO)s1`, with “inactive”.
The value for `CO[C@@H]1CN(C)C(=O)c2ccc(NC(=O)C3CCCC3)cc2OC[C@@H](C)N(C(=O)Nc2ccc(C(F)(F)F)cc2)C[C@H]1C` was “inactive”; that for `C[C@@H]1CN([C@@H](C)CO)C(=O)c2cc(NC(=O)Cc3ccccc3)ccc2O[C@@H](C)CCCCO[C@H]1CN(C)CC1CCCCC1` was “inactive”; that for `CN1C(=O)c2cc(NC(=O)c3ccc(F)cc3)ccc2OC[C@@H]2O[C@H](CC(=O)N3CCOCC3)CC[C@H]21` was “inactive”.
Then `C/C=N/N(C)C=O`, with “inactive”.
On to `COc1ccc2c3c([nH]c2c1)[C@H](CO)N(CC1CCCCC1)C[C@]13CN(C1)C(=O)Nc1cccc(c1)F`, for which the growth inhibition call is “inactive”.
Then `C[C@H]1CCCCO[C@@H](CN(C)Cc2ccccc2)[C@@H](C)CN([C@@H](C)CO)C(=O)c2cc(NC(=O)Nc3ccccc3)ccc2O1`, with “inactive”; and `C=CCOC(=O)C1=C[C@@H](c2csc3ccccc23)C[C@@H](OCc2ccc(COC(=O)NCCCCCC(=O)NO)cc2)O1`, with “inactive”.
The value for `Cc1ccc(S(=O)(=O)Nc2ccc3c(c2)C(=O)N([C@H](C)CO)C[C@H](C)[C@H](CN(C)CC2CCCCC2)OCCCC[C@H](C)O3)cc1` was “inactive”.
As to `C=CCN1C(=O)[C@]2(O[C@H](CCO)[C@@H]([Si](C)(C)c3ccc(OC)cc3)[C@@H]2C)c2cc(N3C(=O)c4cccc5cccc3c45)ccc21`, the growth inhibition call is “inactive”.
Consider `Cc1ccc(S(=O)(=O)N(C)C[C@H]2Oc3c(NC(=O)Nc4cccc5ccccc45)cccc3C(=O)N([C@@H](C)CO)C[C@H]2C)cc1`, for which the growth inhibition call was “inactive”.
On to `NCc1ccccc1-n1cncn1`, for which the growth inhibition call was “inactive”.
As to `COc1ccc(CN(C)C[C@H]2OCCCC[C@H](C)Oc3ccc(NS(=O)(=O)c4ccc(C)cc4)cc3C(=O)N([C@H](C)CO)C[C@H]2C)cc1`, the growth inhibition call was “inactive”.
Then `C[C@@H]1CN([C@@H](C)CO)C(=O)c2cc(NC(=O)Nc3ccccc3)ccc2O[C@@H]1CN(C)Cc1ccc(Cl)c(Cl)c1`, with “inactive”; and `CO[C@H]1/C=C\C=C(/C)C(=O)NC2=CC(=O)C=C(C2=O)[C@H](OC)[C@@H](C)C[C@H](OC)[C@H](O)[C@@H](C)/C=C(\C)[C@@H]1OC(N)=O`, with “inactive”; and `COC1C=COC2(C)Oc3c(C)c(O)c4c(O)c(c5c(nc6cc(C)ccn65)c4c3C2=O)NC(=O)C(C)=CC=CC(C)C(O)C(C)C(O)C(C)C(OC(C)=O)C1C` (stereo not given), with “active”.
Regarding `CO[C@H]1CN(C)C(=O)c2ccc(NS(C)(=O)=O)cc2OC[C@@H](C)N(C(=O)CN(C)C)C[C@@H]1C`, the growth inhibition call is “inactive”.
Then `C[C@H]1CN([C@@H](C)CO)S(=O)(=O)c2ccc(C#CC3(O)CCCC3)cc2O[C@H]1CN(C)C(=O)c1ccccc1`, with “inactive”; and `COc1cccc(S(=O)(=O)N2C[C@H](O)COC[C@H]3O[C@@H](CC(=O)N4CCOCC4)CC[C@@H]32)c1`, with “inactive”.
Consider `C[C@@H]1CN([C@H](C)CO)S(=O)(=O)c2ccc(C3=CCCCC3)cc2O[C@@H]1CN(C)S(=O)(=O)c1cn(C)cn1`, for which the growth inhibition call is “inactive”.
